Test results as given in paper PMC5700166.
The list shows a part of the results, in another mix than the full data. The list includes weakly bound sequences.

How the values were obtained:
Assay in all cases: protein-binding microarray (PBM)
Conditions in all cases: PBM: ~300 nM protein, 6 mM HEPES pH 7.8, 80 mM KCl, 0.5 mM EDTA, 0.5 mM EGTA, 6% glycerol, 35 ng/ul poly-dIdC, 1% milk, 1 h, room temperature; Ap Aiptasia and Nv Nematostella (sea anemones) / Co Capsaspora / Aq Amphimedon (sponge) / Dm Drosophila / Hu human; RHD is the Rel homology domain; high values mean tight binding; most listed sequences are background and not binding sites; double strand, one strand shown
[1] = biological target: T1, GST-Ap-NF-kB RHD (UniProt A0A913YAJ5)
T1 sequence: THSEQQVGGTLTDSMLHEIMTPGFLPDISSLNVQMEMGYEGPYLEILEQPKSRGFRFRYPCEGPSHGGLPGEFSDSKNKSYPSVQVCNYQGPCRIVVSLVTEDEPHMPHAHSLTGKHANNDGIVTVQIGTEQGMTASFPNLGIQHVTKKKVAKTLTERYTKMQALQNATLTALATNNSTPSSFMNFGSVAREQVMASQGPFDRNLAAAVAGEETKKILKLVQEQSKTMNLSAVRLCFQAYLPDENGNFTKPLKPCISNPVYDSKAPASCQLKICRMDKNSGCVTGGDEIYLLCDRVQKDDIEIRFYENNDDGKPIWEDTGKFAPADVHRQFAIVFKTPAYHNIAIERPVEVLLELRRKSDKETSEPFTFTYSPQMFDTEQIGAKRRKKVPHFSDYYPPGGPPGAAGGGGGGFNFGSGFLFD

[2] = biological target: T2, GST-Nv-NF-kB (Cys allele) (UniProt E5G601)
T2 sequence: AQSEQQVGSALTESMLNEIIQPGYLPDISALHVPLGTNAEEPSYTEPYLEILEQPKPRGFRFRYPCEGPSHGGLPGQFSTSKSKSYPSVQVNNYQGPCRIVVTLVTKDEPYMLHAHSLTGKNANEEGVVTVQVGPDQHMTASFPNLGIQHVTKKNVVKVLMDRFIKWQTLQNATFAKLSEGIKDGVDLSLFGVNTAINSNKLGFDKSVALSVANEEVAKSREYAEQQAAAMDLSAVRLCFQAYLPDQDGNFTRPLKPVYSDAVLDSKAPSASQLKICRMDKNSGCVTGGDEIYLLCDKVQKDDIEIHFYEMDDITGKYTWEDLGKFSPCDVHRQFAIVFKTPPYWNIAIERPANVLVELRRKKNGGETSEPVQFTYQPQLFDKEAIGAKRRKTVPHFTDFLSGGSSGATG

[3] = biological target: T3, GST-Co-NF-kB (UniProt F1ARL5)
T3 sequence: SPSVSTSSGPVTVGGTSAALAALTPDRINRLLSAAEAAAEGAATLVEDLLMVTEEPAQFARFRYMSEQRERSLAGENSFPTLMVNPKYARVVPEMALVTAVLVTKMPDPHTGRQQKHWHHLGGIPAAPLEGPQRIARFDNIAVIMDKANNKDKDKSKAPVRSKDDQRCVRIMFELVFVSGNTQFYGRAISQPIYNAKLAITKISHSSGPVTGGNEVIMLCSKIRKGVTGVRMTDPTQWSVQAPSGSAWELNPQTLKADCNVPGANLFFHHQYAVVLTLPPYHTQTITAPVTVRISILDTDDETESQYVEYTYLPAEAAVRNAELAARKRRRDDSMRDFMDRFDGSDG

[4] = biological target: T4, GST-Aq-NF-kB (UniProt A9Y5G7)
T4 sequence: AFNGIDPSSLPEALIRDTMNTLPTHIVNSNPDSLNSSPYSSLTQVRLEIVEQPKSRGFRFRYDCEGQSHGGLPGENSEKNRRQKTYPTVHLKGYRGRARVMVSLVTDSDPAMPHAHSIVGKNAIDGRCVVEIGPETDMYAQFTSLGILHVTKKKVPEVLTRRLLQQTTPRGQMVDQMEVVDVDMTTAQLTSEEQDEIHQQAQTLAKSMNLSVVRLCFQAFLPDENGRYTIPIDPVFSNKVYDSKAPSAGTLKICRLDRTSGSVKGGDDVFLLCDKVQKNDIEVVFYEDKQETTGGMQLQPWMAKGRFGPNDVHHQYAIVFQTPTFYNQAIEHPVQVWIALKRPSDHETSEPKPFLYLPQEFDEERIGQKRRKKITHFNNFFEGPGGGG

[5] = biological target: T5, GST-Dm-Relish (UniProt Q94527)
T5 sequence: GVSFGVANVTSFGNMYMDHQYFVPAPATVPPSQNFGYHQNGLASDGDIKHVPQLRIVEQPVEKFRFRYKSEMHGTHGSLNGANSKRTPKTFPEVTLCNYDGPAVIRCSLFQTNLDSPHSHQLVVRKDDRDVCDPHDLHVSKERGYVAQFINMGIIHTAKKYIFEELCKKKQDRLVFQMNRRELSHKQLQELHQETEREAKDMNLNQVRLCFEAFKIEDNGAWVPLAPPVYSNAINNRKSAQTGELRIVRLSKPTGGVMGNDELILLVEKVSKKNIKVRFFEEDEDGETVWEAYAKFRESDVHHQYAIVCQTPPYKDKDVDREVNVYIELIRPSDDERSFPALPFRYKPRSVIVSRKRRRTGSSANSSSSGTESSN

CCGATTAACATCACGTTTTTTCCTGATGTTAATCGGGTCTTGATTCGCTTGACGCTGCTG
binding signal [1]: -0.0412 z-score
binding signal [2]: 0.0997 z-score
binding signal [3]: 0.997 z-score
binding signal [4]: 0.789 z-score

CCGATTAACATCACGTATTTTCCTGATGTTAATCGGGTCTTGATTCGCTTGACGCTGCTG
binding signal [1]: -0.237 z-score
binding signal [2]: 0.58 z-score
binding signal [3]: -0.0485 z-score
binding signal [4]: 0.754 z-score

CCGATTAACATCACGGAAACTACTGATGTTAATCGGGTCTTGATTCGCTTGACGCTGCTG
binding signal [1]: 0.219 z-score
binding signal [2]: 0.805 z-score
binding signal [3]: 0.887 z-score
binding signal [5]: 1.84 z-score
binding signal [4]: 1.46 z-score

CCGATTAACATCAAAAAAATTACTGATGTTAATCGGGTCTTGATTCGCTTGACGCTGCTG
binding signal [1]: -0.67 z-score
binding signal [2]: 0.0797 z-score
binding signal [3]: 0.289 z-score
binding signal [4]: 0.815 z-score

CCGATTAACATCACGACCCGGGCTGATGTTAATCGGGTCTTGATTCGCTTGACGCTGCTG
binding signal [1]: 0.359 z-score
binding signal [2]: -0.555 z-score
binding signal [3]: 0.546 z-score
binding signal [5]: -0.486 z-score
binding signal [4]: 0.124 z-score

CCGATTAACATCAAATATTTTCCTGATGTTAATCGGGTCTTGATTCGCTTGACGCTGCTG
binding signal [1]: 0.00302 z-score
binding signal [2]: -0.646 z-score
binding signal [3]: 0.29 z-score
binding signal [4]: 0.432 z-score

CCGATTAACATCACGTACATTCCTGATGTTAATCGGGTCTTGATTCGCTTGACGCTGCTG
binding signal [1]: 0.0173 z-score
binding signal [2]: -0.815 z-score
binding signal [3]: -0.56 z-score
binding signal [4]: 0.0816 z-score

CCGATTAACATCATAGTGGCTAATGATGTTAATCGGGTCTTGATTCGCTTGACGCTGCTG
binding signal [1]: -0.486 z-score
binding signal [2]: 0.124 z-score
binding signal [3]: 0.118 z-score
binding signal [5]: -0.086 z-score
binding signal [4]: -0.274 z-score

CCGATTAACATCAGGAAAACACATGATGTTAATCGGGTCTTGATTCGCTTGACGCTGCTG
binding signal [1]: -0.437 z-score
binding signal [2]: 0.358 z-score
binding signal [3]: 0.425 z-score
binding signal [4]: 0.549 z-score

CCGATTAACATCACGGAAAATACTGATGTTAATCGGGTCTTGATTCGCTTGACGCTGCTG
binding signal [1]: 0.0745 z-score
binding signal [2]: -0.0428 z-score
binding signal [3]: 0.684 z-score
binding signal [4]: 0.988 z-score

CCGATTAACATCAGTGGTTACCATGATGTTAATCGGGTCTTGATTCGCTTGACGCTGCTG
binding signal [1]: 0.0575 z-score
binding signal [2]: -0.595 z-score
binding signal [3]: -0.297 z-score
binding signal [4]: 0.204 z-score

CCGATTAACATCACGTAAAATCCTGATGTTAATCGGGTCTTGATTCGCTTGACGCTGCTG
binding signal [1]: -0.29 z-score
binding signal [2]: -0.192 z-score
binding signal [3]: 0.36 z-score
binding signal [4]: 0.767 z-score

CCGATTAACATCACGGAATTGCCTGATGTTAATCGGGTCTTGATTCGCTTGACGCTGCTG
binding signal [1]: -0.449 z-score
binding signal [2]: -0.777 z-score
binding signal [3]: -0.401 z-score
binding signal [4]: 1.14 z-score

CCGATTAACATCAGTACATTCCATGATGTTAATCGGGTCTTGATTCGCTTGACGCTGCTG
binding signal [1]: -0.314 z-score
binding signal [2]: -1.53 z-score
binding signal [3]: 0.0413 z-score
binding signal [4]: -0.0371 z-score

CCGATTAACATCACTGTACGCCTTGATGTTAATCGGGTCTTGATTCGCTTGACGCTGCTG
binding signal [1]: 0.289 z-score
binding signal [2]: -0.547 z-score
binding signal [3]: 0.085 z-score
binding signal [5]: -0.28 z-score
binding signal [4]: -0.00577 z-score

CCGATTAACATCATTACATGACGTGATGTTAATCGGGTCTTGATTCGCTTGACGCTGCTG
binding signal [1]: -0.372 z-score
binding signal [2]: -0.243 z-score
binding signal [3]: -0.375 z-score
binding signal [5]: 0.252 z-score
binding signal [4]: -0.225 z-score

CCGATTAACATCATGCTTAATGATGATGTTAATCGGGTCTTGATTCGCTTGACGCTGCTG
binding signal [1]: -0.673 z-score
binding signal [2]: -0.973 z-score
binding signal [3]: -1.03 z-score
binding signal [5]: -0.826 z-score
binding signal [4]: -0.596 z-score

CCGATTAACATCATCCTAACTGCTGATGTTAATCGGGTCTTGATTCGCTTGACGCTGCTG
binding signal [1]: -0.404 z-score
binding signal [2]: -0.136 z-score
binding signal [3]: -0.211 z-score
binding signal [5]: -0.567 z-score
binding signal [4]: -0.378 z-score

CCGATTAACATCACGGAATTCACTGATGTTAATCGGGTCTTGATTCGCTTGACGCTGCTG
binding signal [1]: 0.0873 z-score
binding signal [2]: 0.36 z-score
binding signal [3]: 0.347 z-score
binding signal [4]: 0.929 z-score

CCGATTAACATCATTTCTTACGGTGATGTTAATCGGGTCTTGATTCGCTTGACGCTGCTG
binding signal [1]: 0.205 z-score
binding signal [2]: 0.378 z-score
binding signal [3]: 0.658 z-score
binding signal [4]: 0.58 z-score

CCGATTAACATCAAAATTTACCATGATGTTAATCGGGTCTTGATTCGCTTGACGCTGCTG
binding signal [1]: 0.443 z-score
binding signal [2]: 0.863 z-score
binding signal [3]: 0.206 z-score
binding signal [4]: 1.07 z-score

CCGATTAACATCACGGGAGTTCCTGATGTTAATCGGGTCTTGATTCGCTTGACGCTGCTG
binding signal [1]: 3.99 z-score
binding signal [2]: 3.71 z-score
binding signal [3]: 1.77 z-score
binding signal [4]: 5.04 z-score

CCGATTAACATCAAAAATTCCCCTGATGTTAATCGGGTCTTGATTCGCTTGACGCTGCTG
binding signal [1]: 10.4 z-score
binding signal [2]: 12.8 z-score
binding signal [3]: 9.75 z-score
binding signal [4]: 9.6 z-score

CCGATTAACATCAAATCCAACACTGATGTTAATCGGGTCTTGATTCGCTTGACGCTGCTG
binding signal [1]: -0.818 z-score
binding signal [2]: 0.122 z-score
binding signal [3]: 0.0814 z-score
binding signal [5]: -0.498 z-score
binding signal [4]: -0.312 z-score

CCGATTAACATCAGTAACTCGAATGATGTTAATCGGGTCTTGATTCGCTTGACGCTGCTG
binding signal [1]: -0.848 z-score
binding signal [2]: -0.948 z-score
binding signal [3]: -0.212 z-score
binding signal [5]: -0.739 z-score
binding signal [4]: -0.502 z-score

CCGATTAACATCAACTCCTTGGCTGATGTTAATCGGGTCTTGATTCGCTTGACGCTGCTG
binding signal [1]: -0.0472 z-score
binding signal [2]: 0.414 z-score
binding signal [3]: -0.239 z-score
binding signal [5]: -0.782 z-score
binding signal [4]: -0.54 z-score

CCGATTAACATCAATTGGGTTCCTGATGTTAATCGGGTCTTGATTCGCTTGACGCTGCTG
binding signal [1]: -0.107 z-score
binding signal [2]: -0.395 z-score
binding signal [3]: -0.112 z-score
binding signal [5]: 0.109 z-score
binding signal [4]: -0.157 z-score

CCGATTAACATCAGACTATGCGGTGATGTTAATCGGGTCTTGATTCGCTTGACGCTGCTG
binding signal [1]: 0.192 z-score
binding signal [2]: -0.539 z-score
binding signal [3]: 0.332 z-score
binding signal [5]: 0.253 z-score
binding signal [4]: 0.248 z-score

CCGATTAACATCATATTTCAGGTTGATGTTAATCGGGTCTTGATTCGCTTGACGCTGCTG
binding signal [1]: 0.0711 z-score
binding signal [2]: -0.872 z-score
binding signal [3]: -0.0388 z-score
binding signal [5]: -0.461 z-score
binding signal [4]: -0.316 z-score

CCGATTAACATCAGCTCTCCGGATGATGTTAATCGGGTCTTGATTCGCTTGACGCTGCTG
binding signal [1]: -0.758 z-score
binding signal [2]: -0.388 z-score
binding signal [3]: -0.839 z-score
binding signal [5]: -1.08 z-score
binding signal [4]: -0.631 z-score
